Counter-ions that a name gives are not always drawn. The list shows a part of the results. Many values rest on one well or one pass, so single values are uncertain.
How the values were obtained:
Experiment in all cases: area under viability curve (10 nM-1 µM), viability relative to solvent or trametinib-only control (AUC (arbitrary, % viability x concentration range)); higher = less growth inhibition (more viable cells)
KCNR = details: 72 h compound exposure (96 h after seeding) h
Method: (§1)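 Four neuroblastoma cell lines (KCNR, SKNBE, SJNB8, SKNAS) were seeded in 384-well plates. At 24 h, 1 µM trametinib or DMSO was added, followed by library compounds at 10 nM, 100 nM and 1 µM. Viability was read by MTT at 96 h and normalised to solvent-treated cells (DMSO arm) or to trametinib-only cells (trametinib arm). The area under the 3-point viability curve was computed in GraphPad Prism; units are as given (approx. 100000 = no effect).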

SJNB8 = details: 72 h compound exposure (96 h after seeding) h; trametinib co-treatment 0 µM
Method: as §1

SKNAS = details: 72 h compound exposure (96 h after seeding) h
Method: as §1

SKNBE = details: 72 h compound exposure (96 h after seeding) h
Method: as §1
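Note: KCNR is a neuroblastoma cell line carrying an ALK mutation, in this DMSO arm without trametinib, viability was normalised to solvent-treated cells.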

Row | SMILES | area under viability curve (KCNR; trametinib co-treatment 0 µM) | area under viability curve (KCNR; trametinib co-treatment 1 µM) | area under viability curve (SJNB8) | area under viability curve (SKNAS; trametinib co-treatment 0 µM) | area under viability curve (SKNAS; trametinib co-treatment 1 µM) | area under viability curve (SKNBE; trametinib co-treatment 0 µM) | area under viability curve (SKNBE; trametinib co-treatment 1 µM)
1 | Nc1ccccc1NC(=O)CCCCCCC(=O)Nc1ccccc1 | 103000 | 96400 | 93800 | 120000 | 106000 | 107000 | 90900
2 | Cc1cccn2c(=O)c(C=C(C#N)c3nc4ccccc4s3)c(Oc3ccc(F)cc3)nc12 | 99000 | 100000 | 90500 | 119000 | 102000 | 96400 | 107000
3 | O=c1cc(N2CCOCC2)oc2c(-c3ccccc3)cccc12 | 98400 | 96500 | 97500 | 71100 | 98600 | 101000 | 93500
4 | C=CC(=O)Nc1cc2c(Nc3ccc(F)c(Cl)c3)ncnc2cc1OCCCN1CCOCC1 [Canertinib 2HCl] | 102000 | 97500 | 66400 | 91800 | 94100 | 74700 | 99200
5 | NC(=O)c1cccnc1 [Nicotinamide] | 104000 | 99600 | 103000 | 118000 | 102000 | 106000 | 105000
6 | N#Cc1c(O)c2c(-c3ccc(-c4ccccc4O)cc3)csc2[nH]c1=O | 94900 | 99900 | 104000 | 122000 | 96000 | 97700 | 99000
7 | CC1(C)CNc2cc(NC(=O)c3cccnc3NCc3ccncc3)ccc21 [Motesanib] | 106000 | 107000 | 99000 | 138000 | 100000 | 119000 | 104000
8 | CCCCCCCCCCCCCCCCCCCCCC(=O)Nc1ccn([C@@H]2O[C@H](CO)[C@@H](O)[C@@H]2O)c(=O)n1 [Enocitabine] | 75800 | 70000 | 55100 | 69200 | 80800 | 53700 | 49600
9 | CC[C@@]1(O)C[C@H](O[C@H]2C[C@H](N(C)C)[C@H](O[C@H]3C[C@H](O)[C@H](O[C@H]4CCC(=O)[C@H](C)O4)[C@H](C)O3)[C@H](C)O2)c2c(cc3c(c2O)C(=O)c2c(O)cccc2C3=O)[C@H]1C(=O)OC [Aclacinomycin A HCl] | 92600 | 83000 | 82000 | 47500 | 96700 | 83400 | 76700
10 | Nc1ccn([C@H]2CC[C@@H](CO)O2)c(=O)n1 [Zalcitabine] | 103000 | 100000 | 91400 | 112000 | 101000 | 104000 | 111000
11 | COc1cc2ncnc(Nc3ccc(F)c(Cl)c3)c2cc1OCCCN1CCOCC1 [Gefitinib] | 101000 | 100000 | 72300 | 59600 | 101000 | 90200 | 97600
12 | CC[C@]1(O)C[C@@H]2CN(CCc3c([nH]c4ccccc34)[C@@](C(=O)OC)(c3cc4c(cc3OC)N(C)[C@H]3[C@@](O)(C(=O)OC)[C@H](OC(C)=O)[C@]5(CC)C=CCN6CC[C@]43[C@@H]65)C2)C1 [Vinblastine sulfate] | 11400 | 12300 | 19200 | 17400 | 19800 | 14800 | 2630
13 | CC[C@@]1(O)C(=O)OCc2c1cc1n(c2=O)Cc2cc3c([N+](=O)[O-])cccc3nc2-1 [Rubitecan] | 51400 | 45700 | 87800 | 97200 | 88200 | 78300 | 63600
14 | Nc1ccn([C@@H]2O[C@H](CO)[C@@H](O)[C@@H]2O)c(=O)n1 [Cytarabine] | 89200 | 86300 | 55400 | 65600 | 69900 | 68800 | 62100
15 | CNC(=O)c1ccc(N2C(=S)N(c3ccc(C#N)c(C(F)(F)F)c3)C(=O)C2(C)C)cc1F [Enzalutamide] | 106000 | 101000 | 95800 | 85800 | 103000 | 104000 | 96000
16 | Cc1ccc2nc(N)[nH]c(=O)c2c1Sc1ccncc1 [Nolatrexed 2HCl] | 94900 | 98300 | 81200 | 115000 | 97500 | 88600 | 85500
17 | CN(C)C/C=C/C(=O)Nc1cc2c(Nc3ccc(F)c(Cl)c3)ncnc2cc1O[C@H]1CCOC1 [Afatinib] | 97800 | 97700 | 109000 | 133000 | 99000 | 108000 | 99100
18 | O=C1c2ccccc2C(=O)c2c(NCCc3ccc(O)cc3)ccc(NCCc3ccc(O)cc3)c21 | 101000 | 104000 | 106000 | 112000 | 94400 | 113000 | 103000
19 | C=C1C(=O)O[C@@H](CCC)[C@@H]1C(=O)O [Butyrolactone 3] | 104000 | 103000 | 93800 | 102000 | 99600 | 105000 | 111000
20 | NC(=O)c1ccncc1 [Isonicotinamide] | 101000 | 100000 | 83400 | 103000 | 101000 | 102000 | 94200
21 | Cc1ccc2c(=O)c3cccc(CC(=O)O)c3oc2c1C [Vadimezan] | 99700 | 96300 | 108000 | 116000 | 104000 | 96100 | 94600

Row | SMILES | area under viability curve (KCNR; trametinib co-treatment 0 µM) | area under viability curve (KCNR; trametinib co-treatment 1 µM) | area under viability curve (SJNB8) | area under viability curve (SKNAS; trametinib co-treatment 0 µM) | area under viability curve (SKNAS; trametinib co-treatment 1 µM) | area under viability curve (SKNBE; trametinib co-treatment 0 µM) | area under viability curve (SKNBE; trametinib co-treatment 1 µM)
22 | COCCNCc1ccc(-c2cc3nccc(Oc4ccc(NC(=S)NC(=O)Cc5ccc(F)cc5)cc4F)c3s2)nc1 [Glesatinib] | 101000 | 102000 | 92800 | 113000 | 113000 | 116000 | 104000
23 | Nc1nc(F)nc2c1ncn2[C@@H]1O[C@H](COP(=O)(O)O)[C@@H](O)[C@@H]1O [Fludarabine phosphate] | 106000 | 107000 | 79700 | 86900 | 99400 | 100000 | 112000
24 | O[C@@H](COc1cccc2ncccc12)CN1CCN([C@@H]2c3ccccc3[C@@H]3[C@H](c4ccccc42)C3(F)F)CC1 [Zosuquidar] | 98800 | 100000 | 86700 | 116000 | 95300 | 110000 | 115000
25 | CS(=O)(=O)CCNCc1ccc(-c2ccc3ncnc(Nc4ccc(OCc5cccc(F)c5)c(Cl)c4)c3c2)o1 [Lapatinib] | 105000 | 97800 | 71900 | 71800 | 104000 | 87100 | 102000
26 | CCOc1ccn(-c2ccc(F)cc2)c(=O)c1C(=O)Nc1ccc(Oc2ccnc(N)c2Cl)c(F)c1 | 107000 | 105000 | 92800 | 126000 | 98900 | 110000 | 108000
27 | C#Cc1cccc(Nc2ncnc3cc(OCCOC)c(OCCOC)cc23)c1 [Erlotinib] | 102000 | 99700 | 106000 | 125000 | 103000 | 115000 | 95000
28 | C#Cc1cccc(Nc2ncnc3cc(OCCOC)c(OCCOC)cc23)c1 [Erlotinib HCl] | 93200 | 90100 | 95100 | 119000 | 98900 | 94800 | 91800
29 | C[C@@H]1CCN(C(=O)CC#N)C[C@@H]1N(C)c1ncnc2[nH]ccc12 [Tofacitinib] | 101000 | 99600 | 78900 | 86000 | 91200 | 105000 | 95000
30 | CCc1cc(Nc2nccc(-c3c(-c4ccc(OC)c(C(=O)Nc5c(F)cccc5F)c4)nc4ccccn34)n2)c(OC)cc1N1CCC(N2CCN(S(C)(=O)=O)CC2)CC1 | 60100 | 69000 | 108000 | 106000 | 75700 | 52300 | 23400
31 | COc1cc(CCc2cc(NC(=O)c3ccc(N4CC(C)NC(C)C4)cc3)n[nH]2)cc(OC)c1 (stereo unspecified) | 91600 | 80000 | 90600 | 116000 | 94300 | 88300 | 87700
32 | O=C(c1cc(Cc2n[nH]c(=O)c3ccccc23)ccc1F)N1CCN(C(=O)C2CC2)CC1 [Olaparib] | – | – | 82900 | 103000 | 104000 | 98800 | 103000
33 | CCCC(CCC)C(=O)O [Valproic acid] | – | – | 86300 | 78900 | 95800 | 95500 | 103000
34 | CC(C)C[C@H](NC(=O)[C@H](Cc1ccccc1)NC(=O)c1cnccn1)B(O)O [Bortezomib] | – | – | 2890 | 8590 | 7500 | 11100 | 3520
35 | CC(C)(F)C[C@H](N[C@@H](c1ccc(-c2ccc(S(C)(=O)=O)cc2)cc1)C(F)(F)F)C(=O)NC1(C#N)CC1 [Odanacatib] | 100000 | 116000 | 88900 | 96200 | 103000 | 108000 | 103000
36 | COc1cc([C@@H]2c3cc4c(cc3[C@@H](O[C@@H]3O[C@@H]5CO[C@@H](C)O[C@H]5[C@H](O)[C@H]3O)[C@H]3COC(=O)[C@H]23)OCO4)cc(OC)c1O [Etoposide] | – | – | 77000 | 100000 | 75600 | 89400 | 54900
37 | COc1ccc2c(Oc3ccc(NC(=O)c4c(C)n(CC(C)(C)O)n(-c5ccccc5)c4=O)nc3)ccnc2c1 | – | – | 68300 | 90600 | 92900 | 81100 | 97200
38 | O=C(/C=C/C#Cc1cccc(NS(=O)(=O)c2ccccc2)c1)NO [Oxamflatin] | – | – | 68000 | 70900 | 44300 | 65500 | 38800
39 | Cc1cn(-c2cc(NC(=O)c3ccc(C)c(Nc4nccc(-c5cccnc5)n4)c3)cc(C(F)(F)F)c2)cn1 [Nilotinib] | – | – | 102000 | 119000 | 99000 | 92900 | 74600
40 | CCCN(CCN1CCN(c2ccccc2OC)CC1)C1CCc2ncsc2C1 (stereo unspecified) | – | – | 80400 | 103000 | 103000 | 106000 | 111000
41 | CC(C)C[C@H](NC(=O)[C@@H](Cc1c[nH]c2ccccc12)NC(=O)[C@H](Cc1ccc(O)cc1)NC(=O)[C@H](CO)NC(=O)[C@H](Cc1c[nH]c2ccccc12)NC(=O)[C@H](Cc1cnc[nH]1)NC(=O)[C@@H]1CCC(=O)N1)C(=O)N[C@@H](CCCN=C(N)N)C(=O)N1CCC[C@H]1C(=O)NCC(N)=O [Triptorelin acetate] | – | – | 65400 | 74500 | 98200 | 80900 | 100000
42 | Oc1cc(O)cc(/C=C/c2ccc(O)c(O)c2)c1 [Piceatannol] | 103000 | 103000 | 89900 | 117000 | 100000 | 103000 | 93100

Source: the supplement of paper PMC9990464
